# Results published in PubChem BioAssay AID493208 (National Center for Advancing Translational Sciences (NCATS), 2011).
# In all, about 44,000 compounds went through this assay and about 340 (0.77%) were called active. Inconclusive results, whose numbers are uncertain, are shown with a selection of clear calls. The call rests on the fitted dose curve; in most records, active means well fitted inhibition curve with a large enough effect; inconclusive means small, poorly fitted or top-dose-only effect; inactive means flat fitted curve, though single readings scatter. No potency is given beside an inconclusive call; the fits are too rough.
# Experiment: Acumen qHTS Assay for Inhibitors of the mTORC1 Signaling Pathway in MEF (Tsc2-/-, p53-/-) Cells: Sytravon; further: nearly all actives have a fitted effect of over 50% in size;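 on activity change, negative = inhibition: plate controls were DMSO for no effect and rapamycin for full effect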
# Details: phospho-rpS6 immunofluorescence/PI, 24 h; series mostly up to 38.3 µM; activity change, negative = inhibition: at the top concentration
# In short: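 Readout is phospho-S6 Alexa 488 signal normalized to PI per well, reported as % active cells with thresholds set from rapamycin (7.5 nM) and DMSO controls. Cells: Tsc2-/-, p53-/- MEFs, 24 hrs compound at 37 C; PI cell number serves as viability.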
# Potency means the concentration at half of the fitted maximal effect; tags describe the fitted curve by direction and shape.
SMILES,Potency,"activity change, negative = inhibition"
CC(C)(C)C1CCc2c(sc(NC(=O)c3ccccc3F)c2C(=O)N2CCCCC2)C1 (centres undefined),"inconclusive [falling, partial curve, poor fit]",–
Cc1ccc(-n2ncc(C(=O)NCc3cccs3)c2C2CCN(C(=O)OC(C)(C)C)CC2)cc1C,"inconclusive [falling, single point]",–
CCCCN(C)CCNC(=O)Cn1ncc2c3ccccc3n(CCC)c2c1=O,"inconclusive [falling, single point]",–
O=C(c1nc(-c2ccc(Cl)cc2)n2c1CCCCC2)N1CCN(c2ccc(F)cc2)CC1,–,inactive: -6.55%
COc1cccc(C(=O)Nc2nnc(S(=O)(=O)N3CCOCC3)s2)c1,–,inactive: 0%
CNC(=O)c1cc2n(n1)CCCN(Cc1ccc(F)cc1)C2=O,–,inactive: -17.1%
Cc1ccc(NC(=O)CCS(=O)(=O)c2ccc3nc(C)sc3c2)cc1,"inconclusive [falling, single point]",–
CC(C)c1ccc(NS(=O)(=O)c2ccc3[nH]c(=O)ccc3c2)cc1,"inconclusive [falling, partial curve, poor fit]",–
O=C(Nc1noc2ccccc12)c1cccc(F)c1,–,inactive: -6.84%
Cc1cc(C)c(NC(=O)Cn2c(=O)n(CCC(=O)NCc3ccc4c(c3)OCO4)c(=O)c3ccccc32)c(C)c1,"inconclusive [falling, full curve, poor fit]",–
CCOC(=O)C1CCN(C(=O)CSc2c3c(nc4ccc(Cl)cc24)CCCC3)CC1,active: 18.5 µM,–
COc1ccc(CNC(=O)c2c(Nc3ccccc3C)sc(C(=O)c3ccccc3)c2N)cc1,"inconclusive [falling, single point]",–
CCc1ccc(NC(=O)CCCc2nc(-c3ccco3)no2)cc1,"inconclusive [falling, single point]",–
COc1ccc(NC(=O)c2cc(-c3ccccc3O)no2)cc1,"inconclusive [falling, partial curve, poor fit]",–
Cc1ccc(Cl)cc1NC(=O)CSc1nc(C)c(C)c(C)c1C#N,"inconclusive [falling, partial curve]",–
CN1CCN(C(=O)Nc2cccc(Cl)c2)c2cccnc21,"inconclusive [falling, single point]",–
COc1ccccc1Nc1c2c(nc3ccc(NC(=O)c4cccc(F)c4)cc13)CCCC2,"inconclusive [falling, single point]",–
COc1ccc(CCNC(=O)CCCn2nc(C)c3sc4ccccc4c3c2=O)cc1OC,active: 18.5 µM,–
COc1cc(CN(C(=O)COc2ccc(Cl)c(C)c2)c2ccccn2)cc(OC)c1OC,"inconclusive [falling, single point]",–
CCc1ccc2c(c1)NC(c1cccnc1)=NC(c1ccc(C(C)(C)C)cc1)=N2,"inconclusive [falling, single point]",–
CSc1ccc(CCNC(=O)c2ccc(-n3c(C)cc4c3CCCC4)cc2)cc1,"inconclusive [falling, partial curve, poor fit]",–
Cc1cccc(-n2nnnc2S(C)(=O)=O)c1,active: 0.414 µM,–

SMILES,Potency,"activity change, negative = inhibition"
COc1ccc2c(c1)CCc1c(C(=O)Nc3c(C)nn(Cc4ccc(C)cc4)c3C)noc1-2,"inconclusive [falling, partial curve, poor fit]",–
CC(NC(=O)C(=O)Nc1c2c(nn1-c1ccc(F)cc1)CSC2)c1ccccc1 (centres undefined),"inconclusive [falling, partial curve, poor fit]",–
COc1cccc(CNC(=O)CCn2cccn2)c1,"inconclusive [falling, single point]",–
O=C(NCCCN1CCN(c2ccccc2F)CC1)c1nnc(Cc2ccc(Cl)cc2Cl)o1,"inconclusive [falling, partial curve, poor fit]",–
CCC(=O)Nc1nnc(S(=O)(=O)N2CCc3ccccc32)s1,"inconclusive [falling, single point]",–
O=C(Cn1cc(SCc2c(F)cccc2Cl)c2ccccc21)N1CCCC1,"inconclusive [falling, partial curve, poor fit]",–
COc1ccc(NC(=O)C2CCCN(c3nnc(C)c4c(C)n(-c5ccccc5)nc34)C2)cc1Cl (centres undefined),"inconclusive [falling, single point]",–
O=C(CSc1nc(-c2ccc(F)cc2)[nH]c1-c1ccc(F)cc1)Nc1ccc2c(c1)OCCO2,–,inactive: -26%
CCCCOc1ccc(Cn2c(=O)oc3ccc(C)cc32)cc1OC,–,inactive: -1.14%
O=S1(=O)c2ccccc2N(Cc2ccc(Cl)cc2)c2ccccc21,"inconclusive [falling, single point]",–
CCc1c(C)nc2nncn2c1NCc1ccccc1,"inconclusive [falling, single point]",–
CCN(Cc1ccccc1)Cc1c(O)ccc2oc(C)c(C(=O)Nc3ccc(C)cc3C)c12,"inconclusive [falling, partial curve, poor fit]",–
COc1ccc(-c2cc(C(=O)N3CCN(c4ccccc4)CC3)no2)cc1,"inconclusive [falling, single point]",–
CCc1ccc(C(=O)c2cn(CC(=O)Nc3ccc4c(c3)OCO4)c3ccc(F)cc3c2=O)cc1,"inconclusive [falling, partial curve, poor fit]",–
CCC(C(=O)NCCc1cc(OC)ccc1OC)n1nc(C)c2c(C)n(-c3ccccc3)nc2c1=O (centres undefined),–,inactive: -20.8%
Cc1ccc(S(=O)(=O)c2nnn3c2nc(N2CCOCC2)c2sccc23)cc1C,–,inactive: -9.35%
CCCCOc1cccc(C(=O)N2CCN(CCc3ccncc3)CC2)c1,"inconclusive [falling, partial curve, poor fit]",–
CN(C)c1ccc(C(CNS(=O)(=O)c2ccc(F)cc2F)N2CCOCC2)cc1 (centres undefined),–,inactive: 0%
CCc1ccc(CN(Cc2cn[nH]c2-c2ccc(OC)cc2)C(=O)Nc2ccc(Br)cc2)cc1,–,inactive: 1.37%
Cc1cccc(NC(=O)Cn2c(=O)c3cccn3c3ccccc32)c1C,"inconclusive [falling, single point]",–
COc1cc(NS(=O)(=O)c2cc(Br)cc3c2N(C(=O)C2CC2)CC3)cc(OC)c1,"inconclusive [falling, single point]",–
COc1ccccc1N1CCN(C(=O)CSc2nc3ccccc3nc2Cc2ccc(C)cc2)CC1,"inconclusive [falling, single point]",–

SMILES,Potency,"activity change, negative = inhibition"
CCc1ccccc1NC(=O)Cn1nc(CC)n2c(cc3sccc32)c1=O,–,inactive: -5.17%
Cc1ccc(-c2nnc(Nc3cccc(Cl)c3)c3ccccc23)cc1S(=O)(=O)N1CCN(C)CC1,"inconclusive [falling, partial curve]",–
CCOC(=O)c1cc2c(=O)n3ccccc3nc2n(C)c1=NC(=O)c1c(-c2c(F)cccc2Cl)noc1C,–,inactive: -11.7%
CCC(=O)N1CCc2cc(Br)cc(S(=O)(=O)Nc3ccccc3C(=O)OC)c21,"inconclusive [falling, partial curve]",–
Cn1c(/C(C#N)=C/c2ccccc2Br)nc2ccccc21,"inconclusive [falling, single point]",–
COc1ccccc1/C=C/c1nc(C#N)c(NC2CCCCC2)o1,"inconclusive [falling, partial curve, poor fit]",–
O=C(Nc1ccc(C(=O)OCc2cc(=O)n3nc(C4CC4)sc3n2)cc1)c1ccccc1,"inconclusive [activator, single point]",–
CC1=C(C(=O)Nc2ccccc2C)C(c2cccs2)n2nc(SCc3ccccc3)nc2N1 (centres undefined),"inconclusive [falling, single point]",–
Cc1scc(CN2CCN(c3ccccc3F)CC2)c1C,"inconclusive [falling, single point]",–
COc1ccc(Nc2c3c(nc4ccccc24)CCC3)cc1Cl,"inconclusive [falling, single point]",–
Cc1cccc(NC(=O)Cn2c(=O)n(Cc3ccc4c(c3)OCO4)c(=O)c3oc4ccccc4c32)c1C,"inconclusive [falling, partial curve, poor fit]",–
CCN(CC)c1cc(C)c2cc(NC(=O)/C=C/c3cc(OC)c(OC)c(OC)c3)ccc2n1,active: 18.5 µM,–
CC(C)N(C(=O)CSc1cn(CC(=O)N2CCCCCC2)c2ccccc12)C(C)C,"inconclusive [falling, single point]",–
CCOc1ccc(NC(=O)c2cc(=O)c3ccc(C)c(C)c3o2)cc1,–,inactive: -4.24%
CC(C)(C)c1ccc(C(=O)N2CCCCC2CCN2CCCCC2)cc1 (centres undefined),"inconclusive [falling, single point]",–
Cc1cccn2c(=O)c(C(=O)NCCc3ccccc3)c(O)nc12,"inconclusive [falling, partial curve, poor fit]",–
Cc1ccc(C(=O)n2nc(C)c(S(=O)(=O)N3CCCCCC3)c2C)cc1,"inconclusive [falling, partial curve, poor fit]",–
Cc1ccc(C)c(CN2CCC(CNC(=O)c3cc4ccc5cccnc5c4[nH]3)CC2)c1,"inconclusive [falling, partial curve]",–
Cc1ccc(C2=NN(CC(=O)NCCN(CC(C)C)CC(C)C)C(=O)CC2)cc1,"inconclusive [falling, full curve, poor fit]",–
Cc1c(Cl)cccc1NC(=O)Cn1cnc2nc3c(cc2c1=O)CCCC3,–,inactive: 1.22%
